Test results published in PubChem BioAssay AID504832 (National Center for Advancing Translational Sciences (NCATS), 2011).
In all, about 310,000 compounds went through this assay and about 18,000 (5.8%) were called active. This list was built around the results that the source calls inconclusive (neither active nor inactive); the mix of calls is not that of the screen. Calls follow the shape of the dose curve; as a rule, active = well fitted inhibition curve with a large enough effect; inconclusive = small, poorly fitted or top-dose-only effect, or another doubt; inactive = no such curve, though single readings can be large or run the other way. No potency is given beside an inconclusive call; the fits are too rough.

assay: Primary qHTS for delayed death inhibitors of the malarial parasite plastid, 48 hour incubation; conditions: P. falciparum luciferase growth in erythrocytes; series mostly up to 28.7 µM
How it was run: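 Compounds are pin-transferred into medium, infected erythrocytes (2% hematocrit, 0.1% parasitemia final) are added, and plates sit one parasite generation at 37 C in 5% CO2. Detection reagent is then added and luminescence measured.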
% is scaled to controls: 0 for no effect and ±100 for the full control effect; potency is read from the fitted curve at half-maximal effect; tags tell the direction and shape of the fitted curve.

| Structure (SMILES) | Potency | activity change, negative = inhibition |
| --- | --- | --- |
| Cc1cc2ccccc2n2c(SCC(=O)Nc3ccc(S(=O)(=O)N4CCCCC4)cc3)nnc12 | inconclusive [inhibitor, partial curve] | – |
| N/C(=N\OC(=O)c1cccc(Cl)c1)c1ccccn1 | inactive | – |
| COc1ccc(-c2cc(=O)oc3c(C)c(OC(C)C(=O)NCc4ccccn4)ccc23)cc1 (stereo unspecified) | inconclusive [inhibitor, single point] | – |
| Cc1ccc(C2(CCNC(C)c3cccs3)CCOC(C(C)C)C2)cc1 (stereo unspecified) | inconclusive [inhibitor, single point] | – |
| COC(=O)c1c(NC(=O)CN2CCN(C(=O)c3ccco3)CC2)c2c(C)cccc2n1C | inconclusive [inhibitor, single point] | – |
| CCOC(=O)c1nnn(-c2nonc2-n2cccc2)c1C | inconclusive [inhibitor, full curve, poor fit] | – |
| CC(C)NC(=O)c1ccc(-n2nc(C(F)(F)F)c3c2CCCC3)cc1 | inconclusive [inhibitor, single point] | – |
| Cc1ccc(NC(=O)CCN2CCOCC2)cc1C | inactive | – |
| O=C(COc1coc(CN2CCN(c3ccccc3)CC2)cc1=O)NC1CCCC1 | inconclusive [inhibitor, full curve, poor fit] | – |
| COC(=O)c1ccc(COc2ccc(/C=N/NC(N)=S)cc2)o1 | inconclusive [inhibitor, full curve, poor fit] | – |
| COc1ccc(-c2nc3n(n2)C(c2ccccc2)C2=C(CCCC2=O)N3)cc1OC (stereo unspecified) | inconclusive [inhibitor, partial curve, poor fit] | – |
| COc1ccc(-n2nc(C(=O)NCCCN3CCCC3=O)c3c4ccccc4n(C)c3c2=O)cc1Cl | inconclusive [inhibitor, single point] | – |
| c1cncc(-c2ccc3ncnc(NCc4cccs4)c3c2)c1 | inconclusive [inhibitor, partial curve, poor fit] | – |
| CC1CCC(NC(=O)C2CCN(S(=O)(=O)c3ccc4nc5c(c(C(=O)O)c4c3)CC(C)CC5)CC2)CC1 (stereo unspecified) | inconclusive [inhibitor, single point] | – |
| O=C(c1[nH]ncc1-c1cccc(Br)c1)C1CO1 (stereo unspecified) | active: 14.7 µM | – |
| O=C(/C=C/c1cccc(Cl)c1)NCc1ccncc1 | inactive | – |
| COc1cc(OC)cc(C(=O)NC2CCSC2=O)c1 (stereo unspecified) | inactive | – |
| C=CCOc1ccc(/C=C2\C(=N)N3N=C(S(=O)(=O)CC)SC3=NC2=O)cc1OC | inconclusive [inhibitor, single point] | – |
| COc1ccccc1N1C(=O)C(Cl)=C(Nc2ccccc2O)C1=O | inactive | – |
| CCOC(=O)c1c(CN2CCN(C)CC2)n(-c2ccccc2)c2cc(Br)c(O)cc12 | inconclusive [inhibitor, full curve] | – |
| COc1ccc(OCc2cc(C(=O)NC(C)Cc3ccccn3)no2)c(Cl)c1 (stereo unspecified) | inconclusive [inhibitor, single point] | – |
| COc1ccc(C2SCCN2C(=S)Nc2ccc(F)cc2)cc1 (stereo unspecified) | inconclusive [inhibitor, single point] | – |
| N#Cc1ccncc1S(=O)c1ccc(Cl)cc1 (stereo unspecified) | inactive | – |
| CC(C)c1ccc(NC(=S)NN(c2ccccc2)c2ccccc2)cc1 | inconclusive [inhibitor, partial curve, poor fit] | – |

| Structure (SMILES) | Potency | activity change, negative = inhibition |
| --- | --- | --- |
| Cc1ccc(C(=O)O)cc1S(=O)(=O)N1CCSCC1 | inconclusive [inhibitor, partial curve, poor fit] | – |
| COc1c(Cl)cnn(-c2ccc(C)cc2)c1=O | inconclusive [inhibitor, single point] | – |
| C=C(C)c1cccc(C(C)(C)NC(=O)NCC2CCCO2)c1 (stereo unspecified) | active: 7.38 µM | – |
| COc1ccc(N2CCN(C(=O)c3ccc(C)c(NC(=O)C4=C(C)OCCS4)c3)CC2)cc1 | inconclusive [inhibitor, partial curve, poor fit] | – |
| Cc1cc(=O)[nH]c(SCc2nc3ccccc3c(=O)n2-c2ccccc2C)n1 | inconclusive [inhibitor, single point] | – |
| Cc1nn(-c2ccccc2)c(C)c1NC(=O)COc1ccc([N+](=O)[O-])cc1 | inactive | – |
| O=C(C[n+]1ccccc1)c1ccc(NC(=O)c2ccccc2)cc1 | inconclusive [inhibitor, partial curve] | – |
| CCc1ccccc1NC(=O)COc1cccc(-n2cnnn2)c1 | inactive | – |
| O=C(CSc1nc2ccccc2n1-c1ccccc1)Nc1ncc(Cl)cc1Cl | inconclusive [inhibitor, single point] | – |
| Cc1c(C(=O)N2CCN(c3ccccn3)CC2)oc2ccccc12 | active: 8.28 µM | – |
| COc1ccc(/C=N/NC(=O)c2cccc(NC(C)=O)c2)c(C(=O)O)c1OC | inconclusive [inhibitor, single point] | – |
| CCOC(=O)C(C)Oc1ccccc1C1NC(=O)NC(C)=C1C(=O)Nc1ccc(C)c(C)c1 (stereo unspecified) | inconclusive [inhibitor, single point] | – |
| CC[N+]1(C)[C@@H]2CC[C@H]1CC(OC(=O)[C@H]1CCC(C(=O)OC3C[C@H]4CC[C@@H](C3)[N+]4(C)CC)(c3ccccc3)c3ccccc31)C2 (stereo partly specified) | active: 10.4 µM | – |
| COc1ccc(S(=O)(=O)NCC2CCCN(C(=O)C3CCCC3)C2)cc1 (stereo unspecified) | inactive | – |
| COc1ccccc1NC(=O)Nc1nc(CC(=O)N2CCN(c3ccc(F)cc3)CC2)cs1 | active: 9.28 µM | – |
| NC(CC(=O)O)c1ccc(Br)cc1 (stereo unspecified) | inactive | – |
| O=C1N=c2ccccc2=C1c1sc(=O)[nH]c1O | inconclusive [inhibitor, single point] | – |
| NC(CSCC(=O)O)C(=O)O (stereo unspecified) | inactive | – |
| Cc1ccccc1-n1c(SCC(=O)NCc2cccs2)nc2ccccc2c1=O | inactive | – |
| CC(=O)NC(c1cc(Cl)c2cccnc2c1O)C(C)C (stereo unspecified) | active: 3.7 µM | – |
| Cc1ccc(S(=O)(=O)N2CCOCC2)cc1NC(=O)C1=NN(c2ccccc2)C(=O)CC1 | inconclusive [inhibitor, partial curve] | – |
| Cc1ccc(-c2nc3cc(C)ccc3o2)cc1 | inactive | – |
| O=C(c1ccc(Cl)cc1)N1CCC(C(=O)N2CCN(c3ncccn3)CC2)CC1 | inconclusive [inhibitor, single point] | – |
| CCCCCC1C/C(=N\O)C=C(C)C1C(=O)OC (stereo unspecified) | inconclusive [inhibitor, partial curve] | – |

| Structure (SMILES) | Potency | activity change, negative = inhibition |
| --- | --- | --- |
| CSc1ncc(Cl)c(C(=O)Nc2ccccc2Br)n1 | inactive | – |
| CC(/C=C/c1ccc(N(C)C)cc1)=N\N=C(/N)SC1CC(=O)N(c2ccc(C(=O)O)cc2)C1=O (stereo unspecified) | inactive | – |
| COc1ccc(-c2nnc(Nc3ccc(CC(N)=O)cc3)c3ccccc23)cc1 | inconclusive [inhibitor, partial curve, poor fit] | – |
| Nc1cc2ccncc2c2ccccc12 | active: 0.117 µM | – |
| Cc1nc(C(=O)NCCCO)cc2c1[nH]c1ccccc12 | inactive | – |
| CC(=O)NC(CC(=O)Nc1nc(-c2ccc(N(C)S(C)(=O)=O)cc2)cs1)c1ccccc1 (stereo unspecified) | inconclusive [inhibitor, partial curve] | – |
| COc1ccc(NC(=O)/C=C/c2cccc(C(F)(F)F)c2)cn1 | inconclusive [inhibitor, single point] | – |
| CN(CC(=O)NC(=O)NC1CCCCC1)CC(=O)Nc1ccc(OC(F)(F)F)cc1 | active: 5.22 µM | – |
| CC(=O)Nc1ccc(C2=CC(=O)C[C@H](c3ccc(Cl)cc3)C2)cc1 | inconclusive [inhibitor, single point] | – |
| CCCCN(C)Cc1c(C)[nH]c2ccc(Cl)cc2c1=O | inconclusive [inhibitor, partial curve, poor fit] | – |
| CCn1cc(C(=O)NCc2ccccc2)c2ccccc21 | inconclusive [inhibitor, single point] | – |
| C[n+]1ccn(CC(=O)c2cc(C(C)(C)C)c(O)c(C(C)(C)C)c2)c1 | active: 9.28 µM | – |
| O=C(CN1CCCCC1)Nc1nc(-c2ccc(F)c(F)c2)cs1 | inconclusive [inhibitor, single point] | – |
| CC[n+]1ccccc1/C=C1\Sc2ccc(C)cc2N1C | active: 1.04 µM | – |
| CC1CCN(CCC(=O)Nc2ccc(Cl)cc2)CC1 | inconclusive [inhibitor, full curve, poor fit] | – |
| CCOc1ccc2nc(-c3ccccc3)nc(SCC(=O)Nc3ncc(C)s3)c2c1 | inconclusive [inhibitor, full curve] | – |
| Cc1c(NCc2cc(Cl)ccc2O)c(=O)n(-c2ccccc2)n1C | inconclusive [inhibitor, single point] | – |
| Fc1ccccc1N1CCN(C(c2ccncc2)c2nnnn2C2CCCC2)CC1 (stereo unspecified) | inconclusive [inhibitor, single point] | – |
| CCC1CCCCN1CCNC(=O)CCS(=O)(=O)c1ccc(Br)cc1 (stereo unspecified) | inconclusive [inhibitor, partial curve] | – |
| OCC1(CCOc2ccccc2)CCN(Cc2ccncc2)CC1 | inconclusive [inhibitor, single point] | – |
| Cc1ccc(C)c(NC(=O)CCC(=O)NNC(=S)Nc2ccccc2)c1 | – | inactive: -16.4% [at 5.75 µM] |
| Cc1cccc2cc(C(c3nnnn3C3CCCC3)N3CCOCC3)c(=O)[nH]c12 (stereo unspecified) | inactive | – |
| CCN1CCN(CCCNC(=O)C2CCCN(c3nc4c(C)cc(C)cc4s3)C2)CC1 (stereo unspecified) | inconclusive [inhibitor, single point] | – |
